# Laboratory results taken from PubChem BioAssay AID1347071 (National Center for Advancing Translational Sciences (NCATS), 2019).
# Screen size: about 410,000 compounds; about 260 (0.063%) were called active. Inconclusive means that the source gave no clear call. Such entries were picked first, then a sample of the others. Calls come from the whole dose curve; as a rule, active = well fitted activation curve with a large enough effect; inconclusive = small, poorly fitted or top-dose-only effect; inactive = no such curve, though single readings can be large or run the other way. Potencies of inconclusive entries are left out as doubtful fits.
# Assay: qHTS for compounds that reverse cellular toxicity of Amyloid beta (A-beta) peptide in yeast: Primary Screen; note: nearly all actives have a fitted effect of over 55% in size
# Settings: yeast expressing A-beta42, growth rescue, OD600, 48 h; growth rescue: at 46.1 µM (top of the series), 0% DMSO, 100% iron-clioquinol control
# Summary of the method: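 Yeast growth medium received pinned compounds, then yeast cells expressing toxic A-beta were added; plates incubated at 30 C for 48 hr. Growth read as absorbance at 600 nm, normalized to DMSO and equimolar FeCl3 plus clioquinol controls.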
# Potency is the fitted concentration of half-maximal effect; tags give direction and shape of the fitted curve.
row,SMILES,Potency
1,CC(C)NC(=O)C1(C)CCN1C(=O)c1c(F)cccc1F (stereo not given),inactive
2,CCC(=O)NC(=S)NNC(=O)COc1ccc(Br)cc1,"inconclusive [activator, single point]"
3,CCC(C)NC(=O)CC(NS(=O)(=O)c1ccc(NC(C)=O)cc1)C(C)C (stereo not given),inactive
4,COC(=O)c1ccccc1NC(=O)Oc1ccc(C(C)C)cc1,inactive
5,COCOCCn1cc(CN2CCS(=O)(=O)N(Cc3ccc(-c4ccc(OC)cc4)cc3)C(C)C2=O)nn1 (stereo not given),inactive
6,Cc1[nH]c2ccccc2c1C(=O)C(=O)N1CCN(c2ccccc2Cl)CC1,"inconclusive [activator, single point]"
7,COc1ccc(NS(=O)(=O)c2ccc(C)c(NC(=O)NC3CCCCC3)c2)cc1,"inconclusive [activator, full curve]"
8,Cc1nnc(SCC(=O)NC2CC2)n1CCc1ccccc1,"inconclusive [activator, partial curve, poor fit]"
9,COc1ccc(C(=O)NC(=S)NC2CCCCC2)cc1,active: 12.6 µM
10,CN(C)S(=O)(=O)Oc1ccc(Cl)cc1C(=O)Nc1ccc(F)cc1F,"inconclusive [activator, single point]"
11,CC(C)C(=O)Nc1ncc(Cc2cccc(Cl)c2)s1,"inconclusive [activator, partial curve, poor fit]"
12,CCOC(=O)c1ccc(-c2ccc(C3Nc4ccccc4C(=O)N3O)o2)cc1 (stereo not given),inactive
13,COc1ccc(-n2ncc3c(=O)n(CC(=O)N4c5ccccc5CC4C)cnc32)cc1 (stereo not given),"inconclusive [activator, full curve]"
14,CCOC(=O)C1CCN(C(=O)Cn2ncc3c4ccccc4n(Cc4ccccc4)c3c2=O)CC1,"inconclusive [activator, partial curve, poor fit]"
15,Cc1ccc(CN2C(=O)C(F)(F)Oc3ccccc32)cc1,"inconclusive [activator, single point]"
16,Cc1ccc(N2C(=O)CCSC23C(=O)N(Cc2ccc(F)cc2)c2ccccc23)cc1 (stereo not given),inactive
17,O=C(Cc1ccccc1)Nc1ccc(Cl)cn1,"inconclusive [activator, single point]"
18,C[C@@H]1COC(=O)[C@H](NC(=O)OCC2c3ccccc3-c3ccccc32)C/C=C\C[C@@H](CC(=O)N(CCO)Cc2ccccc2)C(=O)N1,inactive
19,CCC(C)(C)NC(=O)C(C)OC(=O)c1nsc(Cl)c1Cl (stereo not given),"inconclusive [activator, full curve]"
20,CCc1ccc(C2C(C#N)=C(N)SC(N)=C2C#N)s1,"inconclusive [activator, partial curve, poor fit]"
21,COc1cc(NC(=O)C2CC3CCC2C3)c(OC)cc1Cl (stereo not given),"inconclusive [activator, single point]"
22,CCOP(=O)(OCC)C(Nc1cccc(C(F)(F)F)c1)c1ccc(F)cc1 (stereo not given),"inconclusive [activator, single point]"
23,CCCC(=O)Nc1cc(-c2nnc3c4ccccc4c(C)nn23)ccc1C,inactive

row,SMILES,Potency
1,Cc1cc(NC(=O)c2ccc(C#N)cc2)n(-c2ccccn2)n1,"inconclusive [activator, partial curve]"
2,COc1ccccc1N1CCN(C(=O)c2cc3c(-c4ccccc4F)nn(C)c3s2)CC1,inactive
3,Cc1ccc(OCc2n[nH]c(=S)n2-c2ccccc2)cc1,"inconclusive [activator, single point]"
4,O=C1CCCCC1Nc1ccc2ccccc2c1 (stereo not given),"inconclusive [activator, partial curve]"
5,COc1ccccc1NC(=O)c1ccc(NC(=O)C2COc3ccccc3O2)cc1 (stereo not given),"inconclusive [activator, single point]"
6,O=C(COc1ccccc1Cl)N(Cc1cccc(F)c1)C1CCS(=O)(=O)C1 (stereo not given),"inconclusive [activator, partial curve, poor fit]"
7,CC(Oc1ccccc1)C(=O)Nc1nc(-c2ccccn2)cs1 (stereo not given),"inconclusive [activator, partial curve, poor fit]"
8,O=C(/C=C/c1ccc([N+](=O)[O-])cc1)NCCSc1ccccc1,inactive
9,O=C(N/N=C/c1ccc([N+](=O)[O-])s1)c1ccncc1,inactive
10,CCOCCCNC(=S)N1CCN(c2nc(-c3ccccc3)cs2)CC1,"inconclusive [activator, single point]"
11,CCNC(=O)NC(=O)C(C)OC(=O)C(C)(C)Oc1ccc(Cl)cc1 (stereo not given),"inconclusive [activator, single point]"
12,O=C(NNC(=O)C12CC3CC(CC(C3)C1)C2)c1ccccn1,"inconclusive [activator, single point]"
13,COC(=O)C1CCCCN1C(=O)c1ccc2oc(Cc3ccccc3)nc2c1 (stereo not given),inactive
14,COc1ccccc1NC(=S)NC1CCCC1,"inconclusive [activator, single point]"
15,CC1CCCCC1NC(=O)NC(=O)COC(=O)c1ccc(OC(F)F)cc1 (stereo not given),"inconclusive [activator, partial curve, poor fit]"
16,Cc1nnsc1C(=O)NC1CCCc2c1cnn2-c1ccc(C(C)(C)C)cc1 (stereo not given),"inconclusive [activator, partial curve, poor fit]"
17,COCCNC(=S)N1CCN(c2nc(-c3ccc(Cl)cc3)cs2)CC1,"inconclusive [activator, single point]"
18,CCc1nc2nc(C)c(NS(=O)(=O)c3ccc(F)c(C)c3)c(=O)n2[nH]1,"inconclusive [activator, full curve]"
19,Cc1ccc(-c2csc(NC(=O)c3c(C)noc3C)n2)cc1,"inconclusive [activator, partial curve]"
20,COCCn1c(SCC(=O)NCC2CCCO2)nc2c(c1=O)SC(C)C2 (stereo not given),inactive
21,Cc1ccc2c(c1)c(C)c(C)n2CC(O)Cn1nnc2ccccc21 (stereo not given),active: 10 µM
22,CC(C)C[C@H](NC(=O)c1[nH]cnc1C(=O)Nc1ccc(CNC(=O)OC(C)(C)C)cc1)C(=O)OC(C)(C)C,"inconclusive [activator, single point]"
